Structures are written as SMILES. pIC50: −log10 of the molar value.

Consider three molecules from US20090170849A1, “QUINAZOLINONE DERIVATIVES HAVING B-RAF INHIBITORY ACTIVITY” (ASTRAZENECA AB, priority 2006, published 2009).

For this test, the target named is Mutant B-Raf (V600E) enzyme (MT B-Raf) (Homo sapiens, UniProt P15056, V600E). Nature of the test: B-Raf in-vitro AlphaScreen Assay. In kind it is biochemical. Particulars: purified full length His-tagged Mutant B-Raf (V600E), phosphorylation of biotinylated HIS-MEK-AVI. The procedure: B-Raf in-vitro AlphaScreen Assay
MT B-Raf was expressed in insect cells and affinity purified by Ni^+2 agarose followed by Q-Sepharose chromatography. Typical yield was 1.08 mg/ml at >90% purity. The phosphorylation of the MT B-Raf substrate in the presence and absence of the compound of interest was determined. Briefly, 5 μl of enzyme/substrate/adenosine triphosphate (ATP) mix consisting of 0.12 nM MT B-Raf, 84 nM biotinylated HIS-MEK-AVI, and 24 μM ATP in 1.2× buffer was preincubated with 2 ul of compound for 20 minutes at 25° C. Reactions were initiated with 5 μl of Metal mix consisting of 24 mM MgCl2 in 1.2× buffer and incubated at 25° C. for 60 minutes and reactions were stopped by addition of 5 μl of Detection mix consisting of 20 mM HEPES, 102 mM ethylenediamine tetraacetic acid, 1.65 mg/ml BSA, 136 mM NaCl, 3.4 nM Phospho-MEK1/2 (Ser217/221) antibody (Catalog #9121, Cell Signaling Technology, MA), 40 μg/ml Streptavidin donor beads (Perkin Elmer, MA, Catalog #6760002), and 40 μg/ml Protein A acceptor beads (Perkin Elmer, MA, Catalog #6760137). Plates were incubated at 25° C. for 18 hours in the dark. Phosphorylated substrate was detected by an EnVision plate reader (Perkin Elmer, MA) 680 nm excitation, 520-620 nm emission. Data was graphed and IC50s calculated using Excel Fit (Microsoft).
`Cc1ccc(C(=O)Nc2cccc(C(C)(C)C#N)c2)cc1Nc1ccc2ncn(C)c(=O)c2c1` [Example 1, N-[3-(1-Cyano-1-methylethyl)phenyl]-4-methyl-3-[(3-methyl-4-oxo-3,4-dihydroquinazolin-6-yl)amino]benzamide]: the pIC50 (usually −log10 of the IC50, conventionally taken in molar units) is 7.00. The value for `Cc1ccc(C(=O)Nc2ccnc(C(F)(F)F)c2)cc1Nc1ccc2ncn(C)c(=O)c2c1` [Example 9, 4-Methyl-3-[(3-methyl-4-oxo-3,4-dihydroquinazolin-6-yl)amino]-N-[2-(trifluoromethyl)pyridin-4-yl]benzamide] was 7.36; that for `Cc1ccc(C(=O)NC2CCCC(C(F)(F)F)C2)cc1Nc1ccc2ncn(C)c(=O)c2c1` (stereo not drawn) [Example 7, 4-Methyl-3-[(3-methyl-4-oxo-3,4-dihydroquinazolin-6-yl)amino]-N-[3-(trifluoromethyl)cyclohexyl]benzamide] was 7.12.
